Among all 310,000 compounds or so, about 14,000 (4.5%) showed an effect of 50% or more. Effects have a minus sign here. The list shows a part of the results.
molecular target: human ether-à-go-go-related gene (hERG) potassium channel (human, UniProt Q12809); test: primary screen, population patch clamp on CHO cells stably expressing hERG
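Note: peak tail current of the secondary pulse compared with the same well before compound.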

Chain of human ether-à-go-go-related gene (hERG) potassium channel (Q12809 whole entry, looked up): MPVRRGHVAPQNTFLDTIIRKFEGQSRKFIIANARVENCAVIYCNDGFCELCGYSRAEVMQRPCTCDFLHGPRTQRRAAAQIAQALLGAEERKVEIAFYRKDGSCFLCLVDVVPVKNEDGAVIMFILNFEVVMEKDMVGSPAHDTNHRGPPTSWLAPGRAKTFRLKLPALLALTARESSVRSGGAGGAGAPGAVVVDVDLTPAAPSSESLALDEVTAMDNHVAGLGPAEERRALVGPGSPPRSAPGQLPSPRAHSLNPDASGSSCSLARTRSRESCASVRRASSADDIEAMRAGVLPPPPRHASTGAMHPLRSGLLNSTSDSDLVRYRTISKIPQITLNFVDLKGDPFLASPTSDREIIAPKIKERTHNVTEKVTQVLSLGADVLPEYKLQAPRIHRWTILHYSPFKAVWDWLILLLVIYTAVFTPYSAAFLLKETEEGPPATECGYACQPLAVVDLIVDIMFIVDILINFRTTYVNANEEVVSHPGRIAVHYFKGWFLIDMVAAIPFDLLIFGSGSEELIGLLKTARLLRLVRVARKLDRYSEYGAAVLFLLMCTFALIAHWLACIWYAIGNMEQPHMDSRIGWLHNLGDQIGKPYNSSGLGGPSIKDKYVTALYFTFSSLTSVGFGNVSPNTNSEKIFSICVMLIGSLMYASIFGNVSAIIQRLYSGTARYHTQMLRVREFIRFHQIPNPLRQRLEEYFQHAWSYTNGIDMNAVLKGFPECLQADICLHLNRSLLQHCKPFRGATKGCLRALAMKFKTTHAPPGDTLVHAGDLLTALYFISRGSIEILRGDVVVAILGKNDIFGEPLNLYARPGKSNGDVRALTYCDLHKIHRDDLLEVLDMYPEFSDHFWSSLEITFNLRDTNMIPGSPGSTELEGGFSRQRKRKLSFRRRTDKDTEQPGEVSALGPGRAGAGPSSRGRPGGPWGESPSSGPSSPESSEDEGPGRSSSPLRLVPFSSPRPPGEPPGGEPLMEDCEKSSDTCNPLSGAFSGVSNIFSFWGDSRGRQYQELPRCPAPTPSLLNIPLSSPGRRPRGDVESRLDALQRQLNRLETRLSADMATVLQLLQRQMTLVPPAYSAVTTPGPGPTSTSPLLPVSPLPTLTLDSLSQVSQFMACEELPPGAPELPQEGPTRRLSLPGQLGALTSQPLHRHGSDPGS

SMILES	hERG current change (%, negative = inhibition) at 10uM
O=C(NC1=NCCS1)c1ccccc1	16.4%
COC(=O)c1ccccc1NC(=O)C1CCCCC1C(=O)O (centres unmarked)	-0.478%
CCCN1CCN(c2ncnc3c2nnn3Cc2ccccc2)CC1	-16.2%
O=C(C1=C(O)C(=O)N(CCCn2ccnc2)C1c1ccc(F)cc1)c1ccco1 (centres unmarked)	15.8%
CCC/C(O)=C1\C(=O)CCCC1=NCCCCCC(=O)O	11.6%
CNS(=O)(=O)c1cccc(C(=O)NCC2(N3CCCCC3)CCCCC2)c1	-18.3%
CCCCN1C(=O)C(=O)N(CC(=O)Nc2ccc(C(N)=O)cc2)C1=O	-11.6%
CC(C)(C)C(=O)N1CCN(c2ccc([N+](=O)[O-])c(NCC3CCCO3)c2)CC1 (centres unmarked)	-20.8%
COc1ccc(NCCC#N)cc1	5.05%
CCc1ccc(CN2CCC(CO)(CC3CCCCO3)CC2)o1 (centres unmarked)	-5.06%
COc1ccccc1Nc1c2c(nc3ccc(N)cc13)CCCC2	-72.4%
Cc1sc2nc(SCC(=O)N(CCO)CCO)n(C3CCCCC3)c(=O)c2c1C	6.76%
CCN(CC)CC(O)Cn1c(-c2ccccc2Cl)nc2ccccc21 (centres unmarked)	-25.2%
Cc1cccc(C)c1C(=O)N[C@@H](Cc1ccccc1)C(=O)O	8.83%
NC(CC(=O)NC(c1ccccc1)(c1ccccc1)c1ccccc1)C(=O)O (centres unmarked)	16.2%
O=C(O)c1cccc(-n2cccc2/C=C2\NC(=O)N(Cc3ccc(F)cc3)C2=O)c1	9.83%
Cc1nn(-c2ccccc2)c(Cl)c1/C=N/Nc1nc2ccccc2[nH]1	10.3%
Cc1ccc(CN2CC(C(=O)Nc3ccc(S(=O)(=O)N4CCCCC4)cc3)CC2=O)cc1 (centres unmarked)	-8.99%
CC(c1ccccc1)n1c(CO)nc2ccccc21 (centres unmarked)	21.6%
Cc1cccc(-n2nc([N+](=O)[O-])c(=NCc3cccnc3)n2O)c1	-7.73%
COc1ccccc1NC(=O)c1ccc(NC(=O)COC(=O)C2(C)CC2(Cl)Cl)cc1 (centres unmarked)	-1.34%
COC(C[C@@H]1O[C@H]1[C@H](O)[C@@H](C)OCc1ccccc1)OC	-4.39%
COc1cccc(CC(=O)N[C@@H](CCSC)c2nc3ccccc3[nH]2)c1	2.98%

SMILES	hERG current change (%, negative = inhibition) at 10uM
CCn1c2ccccc2c2c3ncc4cccn4c3ccc21	18.9%
COc1nc(NCCO)nc(Nc2ccccc2F)n1	9.77%
C[C@H](NC(=O)OC(C)(C)C)C(=O)N/N=C/C1=Cc2ccccc2OC1	8.2%
COc1cccc(CN(C)C(=O)c2ccccc2Sc2ccccc2C#N)c1	-13.4%
Cc1c(Br)c([N+](=O)[O-])nn1CC(=O)N1CCN(Cc2ccccc2)CC1	-56.4%
CC(=O)c1cccc(NS(=O)(=O)c2ccc3c(c2)oc(=O)n3C)c1	-6.14%
Cc1nc2nc(N)nc(OCc3ccccc3)c2nc1C	4.32%
CCN(CC)c1nc(N2CCN(CCO)CC2)nc2ccccc12.Cl	-27.8%
CSc1ccc(CNC(=O)C(C)n2nc(C)c3c(C)n(-c4ccccc4)nc3c2=O)cc1 (centres unmarked)	-38.2%
CCS(=O)(=O)N1CCN(C(=O)c2cccc(OC)c2)CC1	6.21%
NS(=O)(=O)c1ccc2nc(-c3ccccc3)c(-c3ccccc3)nc2c1	-21.8%
CC(C)NC(=O)CC1(C(=O)NCc2ccc(Cl)cc2)CCCC1	29.1%
CCC(C)(c1ccc(C(=O)OC)s1)c1ccc(C(=O)OC)s1	8%
CN(C(=O)CCN1C(=O)/C(=C/c2ccccc2F)SC1=S)C1CCS(=O)(=O)C1 (centres unmarked)	-8.32%
Clc1cccc(CSc2ccc(-c3ccco3)nn2)c1	7.39%
Nc1c(Cl)ncnc1N/N=C/c1cccnc1	6.9%
CC(C)(C)N(Cc1ccccc1)C(=O)COC(=O)CCc1c[nH]c2ccccc12	-0.0832%
COc1ccc(C(=O)NC(=O)COC(=O)C2COc3ccccc3O2)cc1 (centres unmarked)	0.535%
Cc1ccc(CN(C(=O)Cc2cccs2)C(C(=O)NC2CCCC2)c2ccncc2)cc1 (centres unmarked)	-21.7%
CC(C)N(O)C(=O)NC(C)(C)C	11.5%
COc1ccc(OC)c(S(=O)(=O)Nc2cc(Cl)cc(Cl)c2)c1	-8.79%
COc1ccc(NC(=O)CSc2nncn2N)c(OC)c1	20.4%
CCC(=O)NNc1nc2c(F)cc(F)cc2s1	9.79%

SMILES	hERG current change (%, negative = inhibition) at 10uM
Cc1nc2ccccc2nc(C)c1=NOCc1ccc(Cl)cc1Cl	-1.12%
O=C(N/N=C/c1ccccc1Cl)c1cccc(F)c1	1.24%
CC(C)(C)c1ccc(C(=O)NCc2nnc(SCC(=O)NCC3CCCO3)o2)cc1 (centres unmarked)	14.6%
CS(=O)(=O)N(CCc1ccccc1)CC(=O)NCc1ccc2c(c1)OCO2	-22.6%
CCNC(=S)NNC(=O)c1csc(C)c1	28.6%
Cc1c(C)c2ccc(OC(C)C(=O)N3CC[C@@]4(O)CCCC[C@H]4C3)c(C)c2oc1=O (some centres unmarked)	14.9%
COc1ccc(Nc2nc(C)nc3c2nnn3Cc2ccccc2)cc1OC	-2.04%
CC(=O)Nc1ccc(S(=O)(=O)NC2CC(=O)N(c3ccc(C)c(C)c3)C2)cc1 (centres unmarked)	16.7%
C=CCSC(=S)Nc1c(C)n(C)n(-c2ccccc2)c1=O	13.9%
COc1ccc(-c2nc(N)nc(C)c2Oc2ccccc2Br)c(O)c1	-10.7%
N/C(=N\OC(=O)c1ccc2ccccc2c1)c1cccc([N+](=O)[O-])c1	5.05%
COC(=O)c1ccc(Oc2nc(SC)nc(N(C)C)n2)cc1	13.2%
CCN1C(=O)c2ccccc2S(=O)c2ccc(C(=O)NCCCN3CCCC3=O)cc21 (centres unmarked)	-0.828%
CN(C)S(=O)(=O)n1cnc2ccccc21	5.24%
Cc1ccc(Cn2ccc(NC(=O)c3cc(-c4cccs4)on3)n2)cc1	9.1%
COc1cccc(-c2nc(CS(=O)(=O)CC(=O)NCCCc3ccccc3)c(C)o2)c1	14.9%
COc1ccc(CC(NC(C)=O)C(=O)NC2CCN(C(=O)C3CCCCC3)CC2)cc1OC (centres unmarked)	8.57%
Cc1ccc(OCCC(=O)N(CCC(C)C)c2c(N)n(Cc3ccccc3)c(=O)[nH]c2=O)cc1	-1.67%
Cc1cc2c3c(c1)C(C)(c1ccccc1)CC(C)(C)N3C(=O)C21C(C#N)=C(N)OC2=C1C(=O)CC(C)(C)C2 (centres unmarked)	-15.2%
Cn1c(SCc2ccc(C(=O)Nc3nccs3)cc2)nnc1-c1ccccc1	4.85%
CCOc1ccc(NC(=O)c2nn(C)c(C(=O)Nc3ccc(OCC)cc3)c2[N+](=O)[O-])cc1	7.08%
Nc1nc(SCC(=O)N2CCCC2)[nH]c(=O)c1-c1ccccc1	15.2%
CCN1CC(CN(C)Cc2nc(-c3ccc(C(F)(F)F)cc3)no2)CC1=O (centres unmarked)	-28.9%

SMILES	hERG current change (%, negative = inhibition) at 10uM
COc1cc(N)ccc1C(=O)O	-0.112%
COC(=O)c1nc(NNC(=O)c2ccccc2)sc1-c1ccccc1	12.1%
NC(=O)C1CCN(C(c2ccccc2)c2nnnn2C2CCCC2)CC1 (centres unmarked)	-2.5%
CN(C)c1ccc(/C=N/NC(=O)CNC(=O)c2ccc3c(c2)OCCO3)cc1	6.4%
CC1CC(C)CN(c2ccc(-n3cnnn3)cc2[N+](=O)[O-])C1 (centres unmarked)	-18.4%
CCCn1c(N)c(N(CCOC)C(=O)CSc2cc(C)c3cccc(C)c3n2)c(=O)[nH]c1=O	-3.56%
Cc1ccccc1OCCn1cc(/C(N)=N/O)c2ccccc21	15.2%
CCCC(C(=O)NCc1ccco1)N(C(=O)CNS(=O)(=O)c1ccccc1)c1ccc(OC)cc1 (centres unmarked)	-30.5%
COC(=O)c1ccc(NC(=O)CSc2nncn2-c2ccccn2)cc1	18.2%
CCCC[C@@H]1CCCO[C@@](C(=O)NCc2ccccn2)(C(F)(F)F)C1	-7.17%
CCOC(=O)c1ccc2c(c1)nc(COc1ccc3ccccc3c1)n2CC	3.73%
CN(CCOc1ccccc1)C(=O)C1CCC(=O)N(CCN2CCOCC2)C1 (centres unmarked)	16.5%
COc1ccc(-c2noc(COc3ccc4ccccc4c3Br)n2)cc1OC	-0.635%
O=c1oc(-c2cccs2)nc2c1cnn2-c1ccccc1	-3.72%
O=C(CCCOc1ccccc1)N1CCN(c2ccccc2)CC1	-32.6%
Cc1nc(NNC(=O)c2ccccc2)cc(-c2ccccc2)n1	3.7%
Cc1cccc(-n2c3nc(=O)[nH]c(=O)c-3cc3c(C)nn(-c4ccccc4)c32)c1C	17.4%
O[C@H]1C2CCC1C(N1CCCCC1)CC2 (some centres unmarked)	3.42%
CCC(=O)N1N=C(c2ccc(NS(C)(=O)=O)cc2)CC1c1ccc(N(C)C)cc1 (centres unmarked)	-66.2%
CCOC(=O)c1c(NC(=O)c2cccnc2Cl)sc(C(=O)N(C)C)c1C	-27.1%

— article PMC4336329 (PLoS ONE, 2015)
